According to patent publication US5470951A, “Peptides for antagonizing the effects of amyloid βprotein” (City of Hope, priority 1993, dated 1995):
“Also recorded” adds a separate entry of the source. At least one peptide structure holds a part that was inferred or is arguable (an end, a ring closure or a residue). Some compounds share one wording; it may come from a single statement. Ends that are not written are not given here. Peptide text beside a SMILES is read from it.

How the values were obtained:
Type in all cases: in vivo, CD-1 male mice
[1] = tested on: retention of FAAT; assay: Amnestic effect of peptide alone on retention of T-maze FAAT in well-trained mice (post-training ICV); settings: 6 nmol per mouse ICV post-training, groups of 15 mice
[2] = tested on: amnestic effects of β-(12-28) on retention of FAAT; assay: Blocking of amnestic effect of β-(12-28) on retention of FAAT by ICV co-administered peptides; settings: co-administered ICV with isomolar (6 nmol) β-(12-28), groups of ten mice, retention tested one week after training; higher mean = less blocking
[3] = tested on: retention of T-maze FAAT; assay: Memory-enhancing effect on retention of T-maze FAAT in weakly trained mice; settings: for Trial to criterion, no (mean ± SEM): peptide alone ICV, weakly trained mice, groups of 14, vehicle alone 9.07 ± 0.25; for memory-enhancing effects on retention of T-maze FAAT: weakly trained animals
[4] = tested on: amnestic effect of β-(12-28); assay: Antagonism of amnestic effect of β-(12-28) by peptide given ICV separately before or after β-(12-28) (FIG. 1); settings: ICV post-training, 2 μl each, 60 seconds apart, groups of 15 mice

Molecule | amnestic effect in the standard test with well-trained mice [1] | Trial to criterion, no (mean + SEM) [2] | Trial to criterion, no (mean ± SEM) [3] | memory-enhancing effects on retention of T-maze FAAT [3] | antagonism of amnestic effect of β-(12-28) when given before or after β-(12-28) [4]
N[C@@H](Cc1ccccc1)C(=O)N[C@@H](Cc1ccccc1)C(=O)O [Phe Phe] (H-Phe-Phe-OH) | no significant amnestic effect | 8.69 ± 0.46 | – | – | –
CC(C)[C@H](NC(=O)[C@H](Cc1ccccc1)NC(=O)[C@@H](N)CO)C(=O)NCC(=O)O [Ser Phe Val Gly] (H-SFVG-OH) | no significant amnestic effect | 8.85 ± 0.41 | – | – | –
KLVFFAE [Lys Leu Val Phe Phe Ala Glu] | no significant amnestic effect | 9.08 ± 0.30 | – | – | –
CC[C@H](C)[C@H](NC(=O)[C@H](Cc1ccccc1)NC(=O)[C@H](C)N)C(=O)NCC(=O)O [Ala Phe Ile Gly] (H-AFIG-OH) | no significant amnestic effect | 8.92 ± 0.38 | – | – | –
CC[C@H](C)[C@H](NC(=O)[C@H](C)N)C(=O)N[C@@H](Cc1ccccc1)C(=O)N[C@H](C(=O)O)[C@@H](C)O [Ala Ile Phe Thr] (H-AIFT-OH) | no significant amnestic effect | 6.92 ± 0.32 | 9.43 ± 0.30 | not to have any memory-enhancing effects | –
CSCC[C@H](NC(=O)[C@H](Cc1ccccc1)NC(=O)CN)C(=O)N[C@H](C(=O)O)[C@@H](C)O [Gly Phe Met Thr] (H-GFMT-OH) | no significant amnestic effect | 8.85 ± 0.47 | – | – | –
CC(C)[C@H](N)C(=O)N[C@H](C(=O)O)C(C)C [Val Val] (H-Val-Val-OH) | no significant amnestic effect | 8.85 ± 0.42 | – | – | –
CC(C)[C@H](NC(=O)[C@H](Cc1ccccc1)NC(=O)[C@H](Cc1ccccc1)NC(=O)[C@@H](N)CC(=O)O)C(=O)O [Asp Phe Phe Val] (H-DFFV-OH) | no significant amnestic effect | 9.31 ± 0.38 | – | – | –
CC(C)C[C@H](NC(=O)[C@@H](N)CCCCN)C(=O)N[C@H](C(=O)N[C@@H](Cc1ccccc1)C(=O)N[C@@H](Cc1ccccc1)C(=O)O)C(C)C [Lys Leu Val Phe Phe] | no significant amnestic effect | 9.23 ± 0.34 | – | – | –
CC(C)[C@H](NC(=O)[C@@H](N)Cc1ccccc1)C(=O)N[C@@H](Cc1ccccc1)C(=O)O [Phe Val Phe] (H-Phe-Val-Phe-OH) | no significant amnestic effect | 8.92 ± 0.26 | – | – | –
CC(C)[C@H](NC(=O)[C@H](Cc1ccccc1)NC(=O)[C@@H](N)CCC(N)=O)C(=O)NCC(=O)O [Gln Phe Val Gly] (H-QFVG-OH) | no significant amnestic effect | 6.69 ± 0.22 | 9.64 ± 0.28 | not to have any memory-enhancing effects | –
N[C@@H](CO)C(=O)N[C@@H](Cc1ccccc1)C(=O)N[C@@H](Cc1ccccc1)C(=O)NCC(=O)O [Ser Phe Phe Gly] (H-SFFG-OH) | no significant amnestic effect | 8.08 ± 0.40 | – | – | –
DFFVG [Asp Phe Phe Val Gly] | no significant amnestic effect | 6.80 ± 0.38 | 9.14 ± 0.32 | not to have any memory-enhancing effects | did not affect the ability of the latter to block the amnestic effect of the former; also recorded: antagonism
CC(C)[C@H](NC(=O)[C@H](C)N)C(=O)N[C@@H](Cc1ccccc1)C(=O)O [Ala Val Phe] (H-Ala-Val-Phe-OH) | no significant amnestic effect | 9.31 ± 0.36 | – | – | –
CC[C@H](C)[C@H](NC(=O)[C@H](CC(C)C)NC(=O)[C@@H](N)CC(N)=O)C(=O)N[C@H](C(=O)O)[C@@H](C)O [Asn Leu Ile Thr] (H-NLIT-OH) | no significant amnestic effect | 9.15 ± 0.41 | – | – | –
